Measurements from PubChem BioAssay AID624417 (National Center for Advancing Translational Sciences (NCATS), 2012).
“And” between values parts separate entries of the source, which are not always exact repeats. Equal values may be shown once. Out of some 410,000 compounds screened, about 6,400 (1.6%) were called active. The inconclusive results got no clear call from the source; some entries with a clear call stand among them for comparison. Calls come from the whole dose curve; as a rule, active = well fitted inhibition curve with a large enough effect; inconclusive = small, poorly fitted or top-dose-only effect; inactive = no such curve, though single readings can be large or run the other way. Where the call is inconclusive, the potency comes from a doubtful curve fit.

target: Glucagon-like peptide 1 receptor (Homo sapiens) (UniProt P43220); assay: qHTS of GLP-1 Receptor Inverse Agonists (Inhibition Mode); conditions: HEK293 GLP-1R CRE-luciferase, luminescence, 24 h, GLP-1R form is constitutively active; activity change, negative = inhibition: at 38.3 µM (top of the series) unless noted; note: nearly all actives have a fitted effect of over 55% in size
Sequence of UniProt P43220 (P43220 whole entry, looked up): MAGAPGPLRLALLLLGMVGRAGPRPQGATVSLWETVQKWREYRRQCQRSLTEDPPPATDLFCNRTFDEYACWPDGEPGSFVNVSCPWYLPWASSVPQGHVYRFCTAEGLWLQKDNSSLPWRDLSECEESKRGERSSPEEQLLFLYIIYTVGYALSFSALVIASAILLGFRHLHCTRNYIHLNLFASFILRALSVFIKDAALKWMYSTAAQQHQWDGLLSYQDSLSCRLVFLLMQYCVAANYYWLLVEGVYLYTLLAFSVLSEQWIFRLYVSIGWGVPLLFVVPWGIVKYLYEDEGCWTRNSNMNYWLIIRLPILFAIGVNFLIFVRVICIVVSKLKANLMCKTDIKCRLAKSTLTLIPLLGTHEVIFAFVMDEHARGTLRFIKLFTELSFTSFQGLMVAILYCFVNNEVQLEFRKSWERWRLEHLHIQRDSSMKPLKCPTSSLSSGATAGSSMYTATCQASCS
Outline: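 Readout was luciferase luminescence, measured 12 min after detection reagent at room temperature. Beforehand, GLP-1R reporter HEK293 cells had sat 12 h, then received compounds for 24 hr at 37 deg C.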
% is set by controls: 0 for no effect and ±100 for the full control effect; potency is the fitted concentration of half-maximal effect; tags give direction and shape of the fitted curve.

Structure (SMILES)	Potency	activity change, negative = inhibition
CCN(c1cccc(C)c1)S(=O)(=O)c1ccc(-c2cc(C)no2)s1	inconclusive: 2 µM [inhibitor, full curve, poor fit]	–
Cc1cccc(NS(=O)(=O)c2cnc(Cl)c(Br)c2)n1	inconclusive: 31.6 µM [inhibitor, single point]	–
CCOc1ccc(NC(=O)c2ccc(NC(=O)c3ccccc3Br)cc2)cc1	inconclusive: 12.6 µM [inhibitor, single point]	–
O=c1oc2ccccc2n1CCCOc1ccccc1Cl	inconclusive: 28.2 µM [inhibitor, single point]	–
Oc1c(Br)cc(Br)cc1C=Nc1ccc2c(c1)OCCO2	inconclusive: 28.2 µM [inhibitor, single point]	–
Cc1cccc(NC(=O)C2CCCN(S(=O)(=O)c3c(C)[nH]c(=O)[nH]c3=O)C2)c1C (centres undefined)	–	inactive: -5.42%
O=C(Nc1cscc1S(=O)(=O)c1ccc(Cl)cc1)c1ccccc1Cl	inconclusive: 31.6 µM [inhibitor, single point]	–
O=C(CCC1CCCN(C(=O)c2cc(F)ccc2F)C1)N1CCN(c2ccccn2)CC1 (centres undefined)	–	inactive: -18%
O=C(CCCCN1CCCCC1)c1ccc2c(c1)Cc1ccccc1-2	–	inactive: -21.1%
CCN(CC)CCCNC(=O)c1cc(Cl)c(NC(=O)C2=C(C)OCCS2)cc1OC	inconclusive: 7.94 µM [inhibitor, partial curve, poor fit]	–
Cc1ccc(N2C(=O)C(Cl)=C(N3CCCCCC3)C2=O)cc1	inconclusive: 11.2 µM [inhibitor, single point]	–
CC(C)C[C@H](NC(=O)c1nc[nH]c1C(=O)N(C)Cc1ccccc1)C(=O)OC(C)(C)C	inconclusive: 31.6 µM [inhibitor, single point]	–
Cc1cc(Nc2ccccc2)nc(N2CCOCC2)n1	inconclusive: 11.2 µM [inhibitor, single point]	–
COc1cccc(NC(=O)CSc2nc(=O)n(Cc3ccccn3)c3c2CCC3)c1	–	inactive: -70.6%
Cc1cccc(CN2CCN([C@@H]3CS(=O)(=O)N[C@H]3COCc3ccccc3)CC2)c1	–	inactive: -13.1%
COc1ccc(C(CNC(=O)c2ccc(S(=O)(=O)Nc3ccc(F)cc3)cc2)N(C)C)cc1 (centres undefined)	inconclusive: 31.6 µM [inhibitor, partial curve, poor fit]	–
COc1cc(NC(=O)c2cnc(N)o2)cc(C(=O)Nc2cccc(C(F)(F)F)c2)c1	inconclusive: 11.2 µM [inhibitor, partial curve, poor fit]	–
NS(=O)(=O)c1ccc(CCN2C(=O)/C(=C\c3ccc(Cl)cc3)SC2=S)cc1	inconclusive: 3.16 µM [inhibitor, full curve, poor fit]	–
S=c1[nH]nc(-c2ccco2)n1-c1ccc(Br)cc1	–	inactive: -1.53%
COc1cccc(NC(=O)c2ccc3c(c2)N(C)CCS3)c1	inconclusive: 28.2 µM [inhibitor, single point]	–
CCC(NC(=O)Nc1ccc(OC)c(OC)c1)c1c(-n2cccc2)sc2c1CCN(C)C2 (centres undefined)	inconclusive: 11.2 µM [inhibitor, single point]	–
O=C(Nc1nc2c(s1)CCCC2)c1ccc(Br)o1	inconclusive: 12.6 µM [inhibitor, single point]	–

Structure (SMILES)	Potency	activity change, negative = inhibition
CCOC(=O)C1(C)CCN1C(=O)c1cccc(Cl)c1 (centres undefined)	–	inactive: -21.4%
COCC(=O)Nc1ccc2c(c1)OCC(=O)N2Cc1ccccc1F	–	inactive: 2.08%
COc1ccccc1C(=O)NCCSc1c(C)[nH]c2ccccc12	inconclusive: 12.6 µM [inhibitor, single point]	–
COc1ccc(NC(=O)CN(C)CC(=O)Nc2ccc(Cl)c(S(=O)(=O)N(C)C)c2)cc1	inconclusive: 7.08 µM [inhibitor, partial curve]	–
COc1ccccc1CN(Cc1nc2ccccc2c(=O)[nH]1)C(=O)Nc1ccccc1	–	inactive: -41.5%
Cc1cccc(-n2c(C)nc3c(cnn3-c3ccc(F)cc3)c2=O)c1	inconclusive: 11.2 µM [inhibitor, partial curve, poor fit]	–
CCCCOCCCNC(=O)C[C@@H]1C[C@@]2(C(=O)OC)CC(C)(C)CC=C2N(Cc2ccccc2)C1=O	inconclusive: 12.6 µM [inhibitor, partial curve, poor fit]	–
CC(=O)N(CN1C(=O)c2ccccc2C1=O)c1ccccc1	–	inactive: 15.5%
CCOC(=O)C1CCN(c2ncnc3c2nnn3Cc2ccccc2Cl)CC1	inconclusive: 28.2 µM [inhibitor, single point]	–
Cc1c(C(=O)N(C)CCOc2ccccc2)oc2c(Cl)cccc12	inconclusive: 22.4 µM [inhibitor, single point]	–
CC(CNC(=O)c1nnc(Cc2cccc(F)c2)o1)c1ccccc1 (centres undefined)	inconclusive: 12.6 µM [inhibitor, single point]	–
C1CCN(c2nc(N3CCCCC3)nc(N3CCNCC3)n2)CC1	inconclusive: 10 µM [inhibitor, partial curve]	–
CSc1nc(C(=O)N2CCCC(Nc3ccc(C)c(C)c3)C2)cs1 (centres undefined)	inconclusive: 11.2 µM [inhibitor, single point]	–
Cc1ccccc1SCC(=O)N1CCN(c2ccc(C(F)(F)F)cn2)CC1	inconclusive: 11.2 µM [inhibitor, single point]	–
CCOC(=O)c1[nH]c(C)c(CCC(=O)Nc2cccc(C(F)(F)F)c2)c1C	inconclusive: 28.2 µM [inhibitor, single point]	–
CCCc1cnc(N2CCN(C(=O)c3c(-c4ccccc4)noc3C)CC2)nc1	inconclusive: 15.8 µM [inhibitor, partial curve, poor fit]	–
C/C(=N\NC(=O)c1cc(C)[nH]n1)c1cccs1	inconclusive: 8.91 µM [inhibitor, partial curve, poor fit]	–
Cc1c(C(=O)NCc2ccoc2)oc2ccc3c(c12)C(=O)CC(C)(C)O3	–	inactive: -9.85%
CC1=CC2=NC(=O)/C(=C\c3cccn3CCOc3cccc(C)c3)C(=N)N2O1	active: 10 µM	–
CC(C)C(NC(=O)Cc1ccccc1)C(=O)N1CCN(c2cccc(Cl)c2)CC1 (centres undefined)	inconclusive: 22.4 µM [inhibitor, single point]	–
Cc1ccc(CNC(=O)CCS(=O)(=O)c2ccc3c(c2)CC(C)N3C(=O)C2CC2)cc1 (centres undefined)	inconclusive: 3.16 µM [inhibitor, full curve, poor fit] and inconclusive: 2.82 µM [inhibitor, partial curve, poor fit]	–
COc1ccc(Cl)cc1NC(=O)CCNC(=O)OCc1ccccc1	inconclusive: 12.6 µM [inhibitor, single point]	–

Structure (SMILES)	Potency	activity change, negative = inhibition
CCN(CC)S(=O)(=O)c1ccc(C(=O)NCc2ccc(C)cc2)cc1	inconclusive: 14.1 µM [inhibitor, single point]	–
COc1ccc(N(C)S(=O)(=O)c2cccc(C(=O)NCc3ccc4c(c3)OCO4)c2)cc1	inconclusive: 10 µM [inhibitor, partial curve, poor fit]	–
Cc1ccc(C2CC(=O)NC(SCC(=O)Nc3nccs3)=C2C#N)cc1 (centres undefined)	inconclusive: 2.51 µM [inhibitor, partial curve, poor fit]	–
Cc1ccc(S(=O)(=O)NCCC(C)C)cc1[N+](=O)[O-]	inconclusive: 31.6 µM [inhibitor, single point]	–
Cc1c(/N=C(\[O-])Nc2ccc(Br)cc2)sn[n+]1C	inconclusive: 7.08 µM [inhibitor, partial curve, poor fit]	–
COc1ccc(Cl)cc1NC(=O)CN1C(=O)NC2(CCCC2)C1=O	–	inactive: -26.8%
CCOc1ccc(-n2cc(-c3ccccc3)c3c(NC4CCCCC4)ncnc32)cc1	inconclusive: 0.316 µM [inhibitor, full curve, poor fit]	–
CC(=O)N(CCC(c1ccco1)C(C)C)Cc1ccc(OC(C)C)cc1 (centres undefined)	inconclusive: 11.2 µM [inhibitor, partial curve, poor fit]	–
O=C(c1ccc(S(=O)(=O)N2CCCCC2)cc1)N1CCN(c2ccccc2F)CC1	inconclusive: 11.2 µM [inhibitor, single point]	–
Cc1cc(C)cc(N(CC(=O)NCc2ccco2)S(=O)(=O)c2ccccc2)c1	inconclusive: 7.94 µM [inhibitor, partial curve, poor fit]	–
O=C(c1cc(Cl)cc(Cl)c1)N1CCC(=O)N([C@H](COCc2ccccc2)Cc2ccccc2)CC1	inconclusive: 11.2 µM [inhibitor, partial curve, poor fit]	–
CN1CCN(C2CCCCC2NS(=O)(=O)c2ccc(Cl)cc2)CC1 (centres undefined)	inconclusive: 10 µM [inhibitor, partial curve]	–
CCOC(=O)Cc1nc2ccccc2[nH]1	–	inactive: -1.33%
COc1ccc(OC)c(NC(=O)COCc2cc(-c3ccco3)on2)c1	–	inactive: 5.29%
CCCCOC(=O)Nc1nnc(/C=C/c2ccc(OC)cc2)s1	–	inactive: -10.6%
CCSc1n[nH]c2nc3c(c(=O)n12)C1(CCCC1)Cc1ccccc1-3	inconclusive: 10 µM [inhibitor, partial curve, poor fit]	–
Oc1c(Cl)cc(Cl)cc1C=Nc1cc(C(F)(F)F)ccc1N1CCc2ccccc2C1	inconclusive: 20 µM [inhibitor, single point]	–
CCN(CC1CCCN(CCc2cccc(F)c2)C1)C(=O)c1ccc(CSC)o1 (centres undefined)	inconclusive: 11.2 µM [inhibitor, partial curve, poor fit]	–
CC(/C=N\NC(=O)Cn1c(C)nc2ccccc21)=C\c1ccccc1	inconclusive: 2 µM [inhibitor, full curve, poor fit]	–
CCOC(=O)c1cc(C#N)c(Oc2ccc(F)cc2)nc1-c1ccccc1	inconclusive: 11.2 µM [inhibitor, partial curve]	–
